In PubChem BioAssay AID485294 (National Center for Advancing Translational Sciences (NCATS), 2010):
Among all 370,000 compounds or so, about 150 (0.041%) were called active. The inconclusive results got no clear call from the source; some entries with a clear call stand among them for comparison. Calls follow the shape of the dose curve; as a rule, active = well fitted inhibition curve with a large enough effect; inconclusive = small, poorly fitted or top-dose-only effect; inactive = flat fitted curve, though single readings scatter. Potencies of inconclusive entries are left out as doubtful fits.

These molecules were tested against Beta-lactamase (Escherichia coli (strain K12)) (UniProt P00811) (assay: qHTS Inhibitors of AmpC Beta-Lactamase (assay with detergent)). Details: AmpC hydrolysis of nitrocefin, absorbance 480 nm, 0.01% Triton; activity change, negative = inhibition: at 114 µM (top of the series).
UniProt P00811, sequence (P00811 whole entry, looked up): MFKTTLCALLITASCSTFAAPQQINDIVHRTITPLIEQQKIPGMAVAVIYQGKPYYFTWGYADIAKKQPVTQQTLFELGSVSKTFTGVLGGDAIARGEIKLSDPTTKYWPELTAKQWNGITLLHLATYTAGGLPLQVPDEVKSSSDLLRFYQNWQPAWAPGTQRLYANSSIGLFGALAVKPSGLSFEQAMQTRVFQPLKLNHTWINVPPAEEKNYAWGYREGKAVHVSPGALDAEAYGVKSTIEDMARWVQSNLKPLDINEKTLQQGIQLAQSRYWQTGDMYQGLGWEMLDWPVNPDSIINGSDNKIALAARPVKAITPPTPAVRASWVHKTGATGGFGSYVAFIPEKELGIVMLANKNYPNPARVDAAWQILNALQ
Procedure, shortened: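 AmpC (5.3 nM in the dispensed reagent) in 20 mM phosphate pH 7.0 with 0.01% (detergent screen) or 0.0001% Triton X-100 was preincubated with compounds for 15 min at room temperature. Nitrocefin was then added from an 800 uM solution, and hydrolysis was followed at 480 nm.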
Also: nearly all actives have a fitted effect of over 25% in size.
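For activity change, negative = inhibition in this document: 0% = no-compound wells and -100% = no-enzyme wells.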
Potency is read from the fitted curve at half-maximal effect; tags tell the direction and shape of the fitted curve.

| Compound | activity change, negative = inhibition | Potency |
| --- | --- | --- |
| CS(=O)(=O)c1ccc(Cl)c(NC(=O)C2CCCCN2S(=O)(=O)c2ccccc2)c1 (stereo not given) | inactive: -8.95% |  |
| CCOC(=O)CNC(=O)N1CCc2ccc(NC(=O)c3ccccc3OC)cc2C1 | inactive: 5.24% |  |
| CCCN(C(=O)c1sc2nc3n(c(=O)c2c1C)CCCC3)c1ccccc1C | inactive: 17.5% |  |
| CCN(C(=O)CSc1ncccn1)C1CCS(=O)(=O)C1 (stereo not given) |  | inconclusive [inhibitor, single point] |
| O=C1CN(C(=O)COC(=O)c2ccc(N3CCCCCC3)c([N+](=O)[O-])c2)c2ccccc2N1 | inactive: -6.88% |  |
| O=C(CSc1nnc(-c2ccc(Br)cc2)o1)N1CCN(C(=O)c2ccco2)CC1 |  | inconclusive [inhibitor, full curve, poor fit] |
| CCOc1ccc(CNC(=O)c2cnc3sc(N4CCCCCC4)nn3c2=O)cc1OC | inactive: 19.5% |  |
| COc1cc(Nc2cc(C)nc3ncnn23)cc(OC)c1OC | inactive: -6.31% |  |
| CCn1c(=O)c2ccccc2n(CC(=O)NCCC2=CCCCC2)c1=O |  | inconclusive [inhibitor, partial curve] |
| COc1ccccc1C(=O)OCc1c(F)cccc1Cl |  | inconclusive [inhibitor, partial curve] |
| COc1ccc(CNC(=O)N2CCN(c3ccccc3OC)CC2)cc1 | inactive: -10.3% |  |
| COc1ccccc1N1CC(O)=C(c2nc3ccccc3c(=O)[nH]2)C1=N |  | inconclusive [inhibitor, partial curve, poor fit] |
| COCc1c(C(=O)N/N=C\c2cccs2)nnn1-c1nonc1N |  | inconclusive [inhibitor, full curve] |
| COCCN1C(=O)c2ccccc2C(C(=O)N2CCN(c3ccccn3)CC2)C1c1ccc(F)cc1 (stereo not given) |  | inconclusive [inhibitor, full curve, poor fit] |
| C=CCn1c(SCCOc2ccccc2)nnc1C(C)NC(=O)c1ccccc1 (stereo not given) | inactive: -6.21% |  |
| O=C(O)CCc1ccc(-c2cccs2)n1CC(=O)Nc1ccccc1C(F)(F)F |  | inactive |
| Cc1ccc(S(=O)(=O)NCc2ccc(C(=O)N3CCN(Cc4ccccc4)CC3)cc2)cc1 |  | inconclusive [inhibitor, full curve] |
| CCc1nnc(N/N=C/c2ccccc2F)n1N |  | inconclusive [inhibitor, single point] |
| Cc1ccc(NC(=O)CN(C)C(=O)CSc2nnc(N)s2)cc1 |  | inconclusive [inhibitor, full curve] |
| COc1ccccc1CNC(=O)COc1ccccc1C(=O)c1cnn(-c2ccccc2)c1 |  | inconclusive [inhibitor, partial curve, poor fit] |
| CC(C)Oc1ccc(C(=O)N2CC(=O)Nc3ccc(F)cc3C2c2ccc(F)cc2)cc1 (stereo not given) | inactive: 10.3% |  |
| COc1ccc(-c2noc(C3CCCN(S(=O)(=O)c4ccc(C)c(Cl)c4)C3)n2)cc1OC (stereo not given) |  | inconclusive [inhibitor, partial curve] |
| COc1ccc(NS(=O)(=O)c2ccc(-n3cnnn3)cc2)cc1OC | inactive: 3.21% |  |
| CN(CC(=O)Nc1ccccc1C(=O)N1CCCC1)S(=O)(=O)c1ccc(Br)cc1 |  | inconclusive [inhibitor, full curve, poor fit] |

| Compound | activity change, negative = inhibition | Potency |
| --- | --- | --- |
| CCN1CCN(Cc2ccc(OC(F)(F)F)cc2)CC1 |  | inconclusive [inhibitor, single point] |
| COc1cccc(-c2c(NC(=O)c3ccco3)oc3ccccc3c2=O)c1 | inactive: -0.275% |  |
| CCC(=NCc1ccco1)c1c(O)n(C2CCCCC2)c(=O)[nH]c1=O | inactive: -11.5% |  |
| O=C(NC1CCCCC1)C(c1ccc(Cl)cc1)N(C(=O)c1ccccn1)c1cccnc1 (stereo not given) | inactive: 3.97% |  |
| CN(C)c1ccc(/C=C(\C#N)c2ccccn2)cc1 |  | inconclusive [inhibitor, full curve, poor fit] |
| COc1cc(C2C(C#N)=C(N)N(N(C)C)C3=C2C(=O)CC(C)(C)C3)cc(OC)c1OC (stereo not given) | inactive: -1.85% |  |
| Cc1ccc(S(=O)(=O)N2CCOCC2)cc1C(=O)Nc1ccc(-c2cn3ccsc3n2)cc1 | inactive: -6.6% |  |
| CCOC(=O)C1CCN(C(=O)COC(=O)c2cc(-c3cccs3)nn2-c2ccccc2)CC1 |  | inconclusive [inhibitor, full curve, poor fit] |
| COc1ccc(OCCSc2nc3ccccc3n2CC(=O)N2CCOCC2)cc1 | inactive: -5.62% |  |
| NS(=O)(=O)c1ccc(CCNC(=S)NC2CCCC2)cc1 | inactive: -6.54% |  |
| O=C(CSCc1ccc(Cl)cc1)Nc1cccc(C(=O)Nc2ccccc2C(=O)O)c1 |  | inconclusive [inhibitor, single point] |
| O=S(=O)(Nc1cc(C(F)(F)F)ccc1N1CCOCC1)c1ccc2ccccc2c1 | inactive: 3.71% |  |
| O=C(COC(=O)c1nc(Cl)ccc1Cl)NNC(=O)c1cccs1 |  | inconclusive [inhibitor, partial curve, poor fit] |
| Cn1c2ccsc2c2ncn(Cc3ccc(F)cc3)c(=O)c21 |  | inconclusive [inhibitor, full curve, poor fit] |
| COc1ccc(NC(=O)CN2C(=O)NC3(CCCCC3C)C2=O)cc1OC (stereo not given) |  | inconclusive [inhibitor, full curve] |
| CN(C)c1ccc(/C=N/N2CCN(Cc3ccccc3Cl)CC2)cc1 |  | inconclusive [inhibitor, partial curve, poor fit] |
| COc1ccccc1CNC(=O)CN1C(=O)c2cccnc2Oc2ccccc21 | inactive: 10.7% |  |
| CCN(CC)S(=O)(=O)c1cc(NC(=O)CSc2nccn2C)ccc1C | inactive: -3.54% |  |
| CC1(C)[C@@H](O)CC[C@]2(C)C3C(O)C=C4[C@H]5C[C@@](C)(C(=O)O)CC[C@]5(C)CC[C@]4(C)[C@]3(C)CC[C@@H]12 (stereo not given in full) | inactive: -0.131% |  |
| Cn1c(=O)n(CCc2ccccc2)c(=O)c2c1nc1n2CCCN1CCc1ccccc1 |  | inconclusive [inhibitor, single point] |
| Cc1cc(N2CCCC2)ccc1NC(=O)CN1C(=O)NC2(CCCCC2)C1=O |  | inconclusive [inhibitor, partial curve, poor fit] |
| COc1ccc(-c2c(C#N)c(N)nc3c2c(=O)n(C)c(=O)n3C)cc1 |  | inconclusive [inhibitor, full curve, poor fit] |
| O=C(O)CCC(=O)N1N=C(c2ccccc2)CC1c1cccs1 (stereo not given) | inactive: -2.85% |  |
| Cc1ccc(CNC(=O)C2CCC(CNS(=O)(=O)c3cccs3)CC2)cc1 (stereo not given) |  | inconclusive [inhibitor, partial curve, poor fit] |

| Compound | activity change, negative = inhibition | Potency |
| --- | --- | --- |
| COc1ccc(NC(=O)CN(C)C(=O)CCSc2ccc(F)cc2)cc1 |  | inconclusive [inhibitor, full curve, poor fit] |
| Clc1cccc(-c2noc3ncnc(Nc4ccc5c(c4)OCO5)c23)c1 |  | inconclusive [inhibitor, full curve] |
| CCNS(=O)(=O)c1ccc(NC(=S)N2CCc3ccccc32)cc1 |  | inconclusive [inhibitor, partial curve, poor fit] |
| COc1ccc(OC)c(NC(=O)c2nnn(Cc3ccc(Br)cc3F)c2N)c1 |  | inconclusive [inhibitor, full curve] |
| Cc1cc2c(c(=O)n1CCN(C)C)C(c1ccc(Br)cc1)C(C#N)=C(N)O2 (stereo not given) |  | inconclusive [inhibitor, partial curve] |
| CCOC(=O)N1CCN(C(=O)Cn2c(C)cc3ccccc3c2=O)CC1 |  | inconclusive [inhibitor, full curve, poor fit] |
| Cc1ccc(C)c(N/N=C2\CCCNC2=O)c1 |  | inconclusive [inhibitor, full curve, poor fit] |
| COc1ccc(S(=O)(=O)N2CCCc3ccccc32)cc1OC | inactive: 4.99% |  |
| COc1cc(/C=C/C(=O)OCC(=O)NC(=O)NC2CCCC2)ccc1OCC#N |  | inconclusive [inhibitor, full curve, poor fit] |
| CC1CC1C(=O)N(C)CC(=O)Nc1cccc(F)c1 (stereo not given) |  | inconclusive [inhibitor, single point] |
| Cc1cccc(N(C)S(=O)(=O)c2c[nH]c3ccc([N+](=O)[O-])cc23)c1 | inactive: -0.711% |  |
| Cc1ccccc1-c1nc(CS(=O)(=O)CC(=O)N2CCc3ccccc3C2)c(C)o1 |  | inconclusive [inhibitor, full curve] |
| COC(=O)c1[nH]c2ccccc2c1NC(=O)Oc1ccccc1 |  | inconclusive [inhibitor, full curve, poor fit] |
| O=C(COc1ccc(S(=O)(=O)N2CCCC2)cc1)Nc1ccc(F)cc1 |  | inconclusive [inhibitor, full curve] |
| Cc1ccc(OCC(=O)O/N=C(\N)Cc2ccc([N+](=O)[O-])cc2)cc1C | inactive: 12.3% |  |
| COC(=O)CN(c1ccc(OC)cc1OC)S(=O)(=O)c1ccccc1[N+](=O)[O-] | inactive: -3.22% |  |
| COc1ccccc1NC(=O)N1CCN(c2cccc(C(F)(F)F)c2)CC1 |  | inconclusive [inhibitor, full curve, poor fit] |
| C=CCN=C1SC(C)C(=O)N1S(=O)(=O)c1ccccc1 (stereo not given) |  | inconclusive [inhibitor, full curve, poor fit] |
| COc1cc(NC(=O)C/C(C)=N/NC(=O)C(=O)NC2CCCCC2)c(OC)cc1Cl |  | inconclusive [inhibitor, full curve] |
| O=C(CSc1nc2c([nH]c3ccccc32)c(=O)n1-c1ccc(F)cc1)NCc1ccc(F)cc1 | inactive: 3.22% |  |
| COc1ccc(C(=O)Nc2ccc3c(c2)Cc2ccccc2-3)cc1 | inactive: 1.86% |  |
| COc1ccc(C2c3ccc4ccccc4c3Oc3ncn(CCO)c(=N)c32)cc1 (stereo not given) | inactive: -3.31% |  |
